Data: PMC12136788
Some of the results follow.

B1: 55563855_55566620_2091_CDS_ENSG00000115355_ENST00000336838|human|control|control (ssRNA)
RNA: GGGAGUUCUACAGUCCGACGAUCUUCAAGCUGAGCUUUCUCCUUCAUUAGAUCCUUGCUUAAAUUCUGACAAUUCUGAAGACUUUGCUUUUCUUGAACAAUCUCAUUUUCAAGAAUCUCAACCUUUUUACUGAGCCUUUGAUUCAACAGAGGAUUGAGCAUCA
B2: chr4:155069534:155069535:+_ENSMUSG00000074738_ENSMUST00000099265|mus_mus|motif|central (ssRNA)
RNA: GGGAGUUCUACAGUCCGACGAUCAUGAUCCUGGGUGCCAGUGGUUUUUGCCAGAAGGGAAUGUAUAUUCUGGCCGGCUCGGUAAAGGCCUCUGGAGAUGGAGAAGACCCCUGGCUGCCAUUGACACUCUAGCCCAGGCCUAUGCAACAGAGGAUUGAGCAUCA
B3: 22262294_22262414_250_3pUTR_ENSG00000104635_ENST00000381237|human|control|control (ssRNA)
RNA: GGGAGUUCUACAGUCCGACGAUCGCCUUCAGCUGCUGCAGAGUGAGGCUGUCACCCUCGCCAUACCGAUGUAUUAGAUCCUGCAGGAAGGAGGCAGCGCUGAUAGCUGGUGCACCCAGGGAUGAAGCGUGAGCCUCAGGGGUGCAACAGAGGAUUGAGCAUCA
B4: chr1:23883277:23883278:-_ENSMUSG00000026155_ENSMUST00000027339|mus_hu|FALSE|FALSE (ssRNA)
RNA: GGGAGUUCUACAGUCCGACGAUCCUCCUUUUCUCUCUUUUUCUCUUCCUUUUUUUUUUCCUUUUCUUUAUUUGUAAUAGCUAUGGCAUUUUUAUCGUAGUAUUUCUUCUUUUCAUAUUUAUCUCUGAUGAAAAAUUCCACUGCCAACAGAGGAUUGAGCAUCA
B5: 33338675_33344321_3692_CDS_ENSG00000083642_ENST00000450460|human|control|control (ssRNA)
RNA: GGGAGUUCUACAGUCCGACGAUCUAAUUUCUCCUCCUGUUCUGUGACGGGCGUUUUUUUCCUGCCUCUAGGCUUCUCCAAUUCAGACCUUACAAGAUCAGAGUCGUCUCUCUUGUCACUUUUUUUCCCCGGCAAAGGUGAAGACAACAGAGGAUUGAGCAUCA
B6: chr8:113366719:113366720:-_ENSMUSG00000033732_ENSMUST00000042012|mus_hu|FALSE|FALSE (ssRNA)
RNA: GGGAGUUCUACAGUCCGACGAUCCAUAUUCUUAGAUGGCUGGUAUUCCAAAAUAACAAUUCGACCAGAGUCACUGCCAACUACAAUGUAGUCUUUGGUGCCACCUGUCAGCCUAAAGGCCAUGAGUGACCGGAUAACACCGAACAACAGAGGAUUGAGCAUCA

target: T1, UNK ZnF1-3 (human, UniProt Q9C0B0 31-174); assay: nsRBNS (natural sequence RNA bind-n-seq); RBNS binding buffer (assumed for nsRBNS): 25 mM Tris pH 7.5, 150 mM KCl, 3 mM MgCl2, 0.01% Triton X-100, 500 ug/ml BSA, 20 U/ml SUPERase-In, 4 C; UNK is unkempt and MSI1 is Musashi-1; names of the RNAs are library labels; protein concentration not given here; high values mean tight binding
T1 sequence: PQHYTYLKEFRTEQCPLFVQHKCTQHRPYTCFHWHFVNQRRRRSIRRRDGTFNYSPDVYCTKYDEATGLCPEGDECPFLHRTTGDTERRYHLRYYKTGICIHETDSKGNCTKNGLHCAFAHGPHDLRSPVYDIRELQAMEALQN

Going from B1 to B2, the binding signal rises from 0.398 enrichment R to 0.732 enrichment R.

Compared with B3, B4 is lower in binding signal: 1.16 enrichment R for the first, 0.285 enrichment R for the second.

First: B5
Second: B6
The binding signal of the first is higher: 0.716 enrichment R for the first, 0.691 enrichment R for the second.
